Experimental data as given in publication PMC4336329 (PLoS ONE, 2015).
Among all 310,000 compounds or so, about 2,200 (0.71%) showed an effect of 50% or more. The effect is printed as a negative number. The list shows a part of the results. Where a SMILES comes first, the peptide text is derived from it. The star is where a group is joined. Bz = O=C(c1ccccc1)*

These compounds were tested against human ether-à-go-go-related gene (hERG) potassium channel (human, UniProt Q12809) (assay: primary screen, population patch clamp on CHO cells stably expressing hERG).
Chain of human ether-à-go-go-related gene (hERG) potassium channel (Q12809 whole entry, looked up): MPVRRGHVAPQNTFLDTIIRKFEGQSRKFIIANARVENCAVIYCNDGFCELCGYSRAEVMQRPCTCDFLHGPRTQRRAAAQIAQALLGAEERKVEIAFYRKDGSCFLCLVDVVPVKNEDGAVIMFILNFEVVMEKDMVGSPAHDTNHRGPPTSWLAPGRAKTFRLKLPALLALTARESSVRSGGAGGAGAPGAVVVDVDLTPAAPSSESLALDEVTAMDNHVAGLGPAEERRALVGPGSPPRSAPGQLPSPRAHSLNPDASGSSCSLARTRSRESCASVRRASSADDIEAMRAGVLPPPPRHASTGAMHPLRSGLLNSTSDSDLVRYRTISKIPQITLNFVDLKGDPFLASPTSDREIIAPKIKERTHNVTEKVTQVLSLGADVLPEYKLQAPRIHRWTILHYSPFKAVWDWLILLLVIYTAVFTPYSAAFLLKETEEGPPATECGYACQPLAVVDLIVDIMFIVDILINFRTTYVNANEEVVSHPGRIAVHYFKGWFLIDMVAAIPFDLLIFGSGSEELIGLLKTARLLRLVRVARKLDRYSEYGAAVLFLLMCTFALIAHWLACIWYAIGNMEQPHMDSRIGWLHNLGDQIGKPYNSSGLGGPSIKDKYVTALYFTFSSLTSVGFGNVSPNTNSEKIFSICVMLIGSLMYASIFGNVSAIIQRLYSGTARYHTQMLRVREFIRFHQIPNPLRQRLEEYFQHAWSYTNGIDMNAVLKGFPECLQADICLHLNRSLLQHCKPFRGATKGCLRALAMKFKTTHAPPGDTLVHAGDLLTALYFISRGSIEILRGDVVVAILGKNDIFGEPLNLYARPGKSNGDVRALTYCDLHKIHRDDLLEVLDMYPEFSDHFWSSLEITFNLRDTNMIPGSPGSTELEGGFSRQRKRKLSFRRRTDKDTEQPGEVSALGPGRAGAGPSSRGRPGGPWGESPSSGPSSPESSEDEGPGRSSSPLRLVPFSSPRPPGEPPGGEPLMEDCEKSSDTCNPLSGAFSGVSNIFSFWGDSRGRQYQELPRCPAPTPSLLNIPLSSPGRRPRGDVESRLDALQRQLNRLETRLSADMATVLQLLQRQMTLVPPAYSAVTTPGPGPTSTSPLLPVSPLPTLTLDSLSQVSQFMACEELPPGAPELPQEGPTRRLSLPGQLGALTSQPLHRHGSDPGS

SMILES	hERG current change (%, negative = inhibition) at 1uM
COCCSc1nnc(NC(=O)COc2ccc3c(c2)OCO3)s1	14.1%
COc1cc(CN2CCN(C(=O)c3ccc(-c4ccccc4)cc3)CC2)cc(OC)c1OC.O=C(O)C(=O)O	-0.534%
CCC(=O)c1ccc(OCC(=O)NC2(C#N)CCCCC2)cc1	7.56%
CS(=O)(=O)Nc1ccc(C(=O)Nc2ccc(S(=O)(=O)Nc3nccs3)cc2)cc1	11.5%
O=C(/C=C/c1cc[n+](CC(=O)c2ccc3cccc4c3c2CC4)cc1)c1ccc2cccc3c2c1CC3.[Br-]	9.17%
Cn1cc(CCC(=O)N2CCCC(Nc3ccc(F)cc3)C2)cn1 (stereo not shown)	13.2%
O=C(Nc1nccs1)c1ccc(COc2ccccc2)o1	12.8%
CCCOc1ccc(CCc2n[nH]c(=S)n2Cc2ccccc2)cc1	-1.28%
CCC1CN(C(=O)N2CCC(C(=O)NCc3ccccc3OC)CC2)c2cc(C)ccc2O1 (stereo not shown)	21%
CS(=O)(=O)N1CCN=C1SCc1ccc([N+](=O)[O-])cc1	-1.47%
CCOC(=O)N1CCN(Cc2cn3ccccc3n2)CC1.O=C(O)C(=O)O	19.5%
Cc1nnc(N2CCCCC2)c2ccccc12	4.96%
O=C(c1ccc(N2CCCCC2)c([N+](=O)[O-])c1)N(Cc1ccccc1)c1ccccn1	-0.948%
CCCS(=O)(=O)N1CCC(C(=O)N2CCc3ccccc3C2)CC1	8.35%
O=C(O)C(Cc1c[nH]c2ccccc12)NS(=O)(=O)c1ccc(Br)cc1 (stereo not shown)	11.9%
CCSc1cnn(-c2ccccc2)c(=O)c1SCC	7.95%
O=c1cccc2n1CC1CC2CN(Cc2ccc3c(c2)OCO3)C1 (stereo not shown)	-2.39%
O=C(O)C(=O)O.O=C(c1cccc(F)c1)N1CCN(C2CCCCC2)CC1	-22.6%
O=C(COC(=O)/C=C/C(=O)OCC(=O)Nc1ccccc1F)Nc1ccccc1F	14.3%
CSc1ccc(CN2CCN(C(=O)COc3cccc(C)c3)CC2)cc1	5.03%
CC(C)C(C)NC(=O)CSc1nc2scc(-c3ccco3)c2c(=O)n1-c1ccccc1 (stereo not shown)	11%
O=C(CCCCCN1C(=O)CCC1=O)Nc1ccc(Br)cc1F	12.7%

SMILES	hERG current change (%, negative = inhibition) at 1uM
CC(=O)Nc1ccc(OCC(O)Cn2c3ccccc3c3ccccc32)cc1 (stereo not shown)	15.3%
CC(=O)c1cccc(NC(=O)NC2CCCCC2)c1	-7.14%
Cn1c2ccccc2c(=O)c2c(=O)n(-c3ccc(F)cc3)c(-c3cccs3)nc21	14.4%
O=C(CN1C(=O)S/C(=C/c2ccccn2)C1=O)N1CCOCC1	18.8%
C=CCNC(=O)c1ccccc1Cl	7.48%
O=C(Nc1ccc(Cl)c(Cl)c1)c1cccnc1	8.6%
COc1ccc(CCNC(=O)C2CC2)cc1OC	1.11%
COc1ccc(Cl)cc1C(=O)n1nc(C)cc1C	9.51%
Cc1cc(NC(=O)CN(C)C)c([N+](=O)[O-])cc1C	-14.2%
COc1ccccc1C(=O)Nc1cccc(N(C)S(C)(=O)=O)c1	20.1%
O=C(NCC1OCCCN1S(=O)(=O)c1cc(F)ccc1F)C(=O)NC1CCCCCC1 (stereo not shown)	13.1%
Nc1nc(CSc2nc3ccccc3[nH]2)nc(N2CCOCC2)n1	13.5%
O=S(=O)(NC1CCCCC1N1CCC(O)CC1)c1ccccc1 (stereo not shown)	12.7%
Cc1cccc(N2C(=O)CC(Sc3nccc(C)n3)C2=O)c1 (stereo not shown)	14.4%
Cc1ccccc1CCN(C(=O)CN1C(=O)c2ccccc2S1(=O)=O)C(C(=O)NCC1CCCO1)c1ccncc1 (stereo not shown)	9.03%
O=C(NC1CCCC1)C(c1ccc(F)cc1)N(Cc1ccccc1Cl)C(=O)CCl (stereo not shown)	1.43%
O=C(Nc1ccccc1C(=O)NCCCN1CCOCC1)c1ccc(F)cc1	9.57%
COc1ccccc1CN1CC(C(=O)NCc2ccc(C)c(F)c2)CCC1=O (stereo not shown)	8.01%
Cn1nnc(NC(=S)NC(=O)c2cccc3c(Br)cccc23)n1	20.2%
COc1ccc(OC)c(C(=O)COC(=O)CN2C(=O)NC3(CCCCC3C)C2=O)c1 (stereo not shown)	2.42%
O=C(O)/C(=C\c1ccco1)NC(=O)c1ccc(Br)o1	9.58%
CCn1cc(CCC(=O)NC2CCCC2)c2ccccc21	12.4%

SMILES	hERG current change (%, negative = inhibition) at 1uM
Br.Cc1cc(C)nc(/N=C2/NC(=O)CS2)n1	8.58%
CCCN(CCC)C(=O)C1CCCN(S(=O)(=O)c2ccc3c(c2)oc(=O)n3C)C1 (stereo not shown)	10.6%
CC(C)C(NC(=O)c1ccc2c(c1)OCCO2)c1nc2ccccc2[nH]1 (stereo not shown)	11.7%
O=C(C1=C[C@@H](C2CCCCC2)C[C@@H](OCc2ccc(CO)cc2)O1)N1CCN(Cc2ccccc2)CC1	3.82%
COc1ccc(CC(=O)NC(C)c2nnc(SCCOc3ccc(OC)cc3)n2C)cc1 (stereo not shown)	4.62%
Cc1cc(Cl)c(OCCCn2cncn2)c(Br)c1	3.58%
CCOC(=O)c1cnc2c(Cl)cccc2c1NCCN(C)C.Cl	5.63%
CCc1ccc(NC(=O)c2cc(-c3cccs3)on2)cc1	14.4%
CCOC(=O)c1ccc(N=C2S/C(=C\c3cc(C)n(-c4cccnc4)c3C)C(=O)N2C)cc1	12.1%
Cc1ccc(CN2CCC(N3CC(C)OC(C)C3)CC2)cc1.Cl (stereo not shown)	7.04%
COc1ccc(-c2nnc3n2N=C(C)CS3)cc1	7.88%
O=C(CN1CCN(S(=O)(=O)c2ccc(Cl)cc2)CC1)NC(=O)NC1CCCCC1	1.4%
O=C(NCCc1nnc2ccc(N3CCCC3)nn12)c1ccccc1	-4.06%
O=C(NC1CC2CCCC(C1)N2C(=O)Nc1ccccc1F)C1CC1 (stereo not shown)	16.9%
CCCCNC(=O)c1ccc(CNc2c(N3CCC(C(=O)OCC)CC3)c(=O)c2=O)cc1	-4.25%
Cc1nc2cc([N+](=O)[O-])ccc2c(=O)n1-c1ccc(Br)cc1	10.8%
CS(=O)(=O)N1CC(C(=O)NN)Oc2ccc(Cl)cc21 (stereo not shown)	10.7%
O=c1cc(O)nc(SCc2ccc(Cl)cc2)[nH]1	-1.97%
Cc1ccccc1NC(=O)N1CCN(S(=O)(=O)c2ccccc2)CC1	14.8%
C[C@H](NC(=O)c1nc[nH]c1C(=O)N1CCc2ccccc2C1)C(=O)OC(C)(C)C	8.53%
COc1ccc(Cl)cc1C(=O)NCCCSc1ccccc1	20.7%
O=C(CSc1nc2ccccc2s1)NCc1ccc2c(c1)OCO2	5.29%

SMILES	hERG current change (%, negative = inhibition) at 1uM
CC1CCN(C(=S)SCc2nc(N)nc(Nc3ccccc3)n2)CC1	9.75%
CCc1nnc(NC(=O)COc2ccc3c(c2)OCO3)s1	11.6%
CCCCCCSc1ccc([C@H]2N[C@@](Cc3ccccc3)(C(=O)OC)[C@H]3C(=O)N(C)C(=O)[C@@H]23)cc1.O=C(O)C(F)(F)F	7.73%
CN(C)S(=O)(=O)c1cccc(-c2cn3ccccc3n2)c1	7.18%
O=C(NCC1CCCN(Cc2cccc(C(F)(F)F)c2)C1)c1ccc(F)cc1 (stereo not shown)	-5.71%
C/C(CC(=O)NCc1ccc(Cl)cc1)=N\NC(=O)Cc1ccccc1	8.4%
Cc1ccc(-c2csc(N(C)C(=O)c3c(C)nn(-c4ccccc4)c3Cl)n2)cc1	19.8%
CCOC(=O)c1ccc(NC(=O)CSc2nc(SC)ns2)cc1	13.3%
O=C(COC(=O)c1ccccc1Oc1ccccc1)NC1CC1	3.68%
CCOC(=O)CNC(=O)CNC(=O)c1nn(-c2ccc(OC)c(OC)c2)c(=O)c2ccccc12	9.4%
COc1ccccc1C1CCN(C(=O)C2CCCCC2)CC1	10.8%
CC(=Nc1ccc(C)cc1C)c1sc2ccccc2c1O	2.63%
COc1ccc(CN2CC(=O)N(c3ccc(C)cc3)C2=S)cc1OC	5.32%
O=C(NCCc1ccccc1)/C(=C/c1ccco1)c1ccccc1	10.9%
O=C(CSc1nnc(NC(=O)C2CCC2)s1)Nc1ccccc1F	13.9%
O=C(NC(Cc1ccccc1)C(=O)NC(Cc1ccccc1)C(=O)O)c1ccccc1 (stereo not drawn) (Bz-Phe-Phe-OH; configuration not given here)	19.7%
COc1cc(-c2nnc(NC(=O)c3ccc(S(=O)(=O)N4CCOCC4)cc3)o2)cc(OC)c1OC	13.7%
Cc1nonc1NC(=O)CSc1nc(C2CCCCC2)nc2ccccc12	3.38%
COc1ccc2nc(C)c3cc(C)oc3c2c1	2.49%
CC1CCCN(CCCOc2ccc([N+](=O)[O-])cc2)C1.O=C(O)C(=O)O (stereo not shown)	-77.4%
Cc1ccc(Cc2c(C)[nH]c(=S)[nH]c2=O)cc1	15.3%
CCn1c(SCc2cccc(F)c2)nnc1-c1ccncc1	11.9%
